# From the supplement of paper PMC8728848
# The list shows a part of the results.
# B1: Als3-2 (Candida albicans) (protein)
# chain: KTITGVFNSFNSLTWSNAATYNYKGPGTPTWNAVLGWSLDGTSASPGDTFTLNMPCVFKFTTSQTSVDLTAHGVKYATCQFQAGEEFMTFSTLTCTVSNTLTPSIKALGTVTLPLAFNVGGTGSSVDLEDSKCFTAGTNTVTFNDGGKKISINVDFERSNVDPKGYLTD
# Assays:
# Assay in all cases: glycan array binding signal (z-score within array); higher = stronger binding
# Details in all cases: glycan notation: IUPAC condensed, linker removed
# Gal(b1-2)Gal = target: Gal(b1-2)Gal
# In short: (§1)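 The Consortium for Functional Glycomics database supplied 3228 glycan arrays, of which those lacking an available protein sequence were dropped. The binding signal, a within-array Z-score, was averaged across arrays of the same protein sequence and across linkers. Negative scores can be read as non-binding.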
# Gal(b1-3)Gal = target: Gal(b1-3)Gal
# In short: as §1
# Gal(b1-3)Gal(b1-4)GlcNAc = target: Gal(b1-3)Gal(b1-4)GlcNAc
# In short: as §1
# Gal(b1-3)GalNAc = target: Gal(b1-3)GalNAc
# In short: as §1
# [1] = target: Gal(b1-3)GalNAc(a1-3)[Fuc(a1-2)]Gal(b1-4)Glc
# In short: as §1
# [2] = target: Gal(b1-3)GalNAc(a1-3)[Fuc(a1-2)]Gal(b1-4)GlcNAc
# In short: as §1
# Gal(b1-3)GalNAc(b1-3)Gal = target: Gal(b1-3)GalNAc(b1-3)Gal
# In short: as §1
# [3] = target: Gal(b1-3)GalNAc(b1-3)Gal(a1-4)Gal(b1-4)Glc
# In short: as §1
# [4] = target: Gal(b1-3)GalNAc(b1-4)Gal(b1-4)Glc
# In short: as §1
# [5] = target: Gal(b1-3)GalNAc(b1-4)[Neu5Ac(a2-3)]Gal(b1-4)Glc
# In short: as §1
# Gal(b1-3)GlcNAc = target: Gal(b1-3)GlcNAc
# In short: as §1
# [6] = target: Gal(b1-3)GlcNAc(a1-3)Gal(b1-4)GlcNAc
# In short: as §1
# [7] = target: Gal(b1-3)GlcNAc(a1-6)Gal(b1-4)GlcNAc
# In short: as §1
# Gal(b1-3)GlcNAc(b1-2)Man = target: Gal(b1-3)GlcNAc(b1-2)Man
# In short: as §1
# [8] = target: Gal(b1-3)GlcNAc(b1-2)Man(a1-3)[Gal(b1-3)GlcNAc(b1-2)Man(a1-6)]Man(b1-4)GlcNAc(b1-4)GlcNAc
# In short: as §1
# [9] = target: Gal(b1-3)GlcNAc(b1-2)Man(a1-3)[Gal(b1-3)GlcNAc(b1-2)Man(a1-6)]Man(b1-4)GlcNAc(b1-4)[Fuc(a1-6)]GlcNAc
# In short: as §1
# [10] = target: Gal(b1-3)GlcNAc(b1-2)Man(a1-3)[GlcNAc(b1-4)][Gal(b1-3)GlcNAc(b1-2)Man(a1-6)]Man(b1-4)GlcNAc(b1-4)GlcNAc
# In short: as §1
# [11] = target: Gal(b1-3)GlcNAc(b1-2)[Gal(b1-3)GlcNAc(b1-6)]Man(a1-6)[Gal(b1-3)GlcNAc(b1-2)Man(a1-3)]Man(b1-4)GlcNAc(b1-4)GlcNAc
# In short: as §1
# [12] = target: Gal(b1-3)GlcNAc(b1-3)Gal(b1-3)GlcNAc
# In short: as §1
# [13] = target: Gal(b1-3)GlcNAc(b1-3)Gal(b1-4)Glc
# In short: as §1
# [14] = target: Gal(b1-3)GlcNAc(b1-3)Gal(b1-4)GlcNAc
# In short: as §1
# [15] = target: Gal(b1-3)GlcNAc(b1-3)Gal(b1-4)GlcNAc(b1-2)Man(a1-3)[Gal(b1-3)GlcNAc(b1-3)Gal(b1-4)GlcNAc(b1-2)Man(a1-6)]Man(b1-4)GlcNAc(b1-4)GlcNAc
# In short: as §1
# [16] = target: Gal(b1-3)GlcNAc(b1-3)Gal(b1-4)GlcNAc(b1-2)[Gal(b1-3)GlcNAc(b1-3)Gal(b1-4)GlcNAc(b1-6)]Man(a1-6)[Gal(b1-3)GlcNAc(b1-3)Gal(b1-4)GlcNAc(b1-2)Man(a1-3)]Man(b1-4)GlcNAc(b1-4)[Fuc(a1-6)]GlcNAc
# In short: as §1
# [17] = target: Gal(b1-3)GlcNAc(b1-3)Gal(b1-4)GlcNAc(b1-3)Gal(b1-4)GlcNAc(b1-2)[Gal(b1-3)GlcNAc(b1-3)Gal(b1-4)GlcNAc(b1-3)Gal(b1-4)GlcNAc(b1-6)]Man(a1-6)[Gal(b1-3)GlcNAc(b1-3)Gal(b1-4)GlcNAc(b1-3)Gal(b1-4)GlcNAc(b1-2)Man(a1-3)]Man(b1-4)GlcNAc(b1-4)[Fuc(a1-6)]GlcNAc
# In short: as §1
# [18] = target: Gal(b1-3)GlcNAc(b1-3)Gal(b1-4)GlcNAc(b1-6)[Gal(b1-3)GlcNAc(b1-3)]Gal(b1-4)Glc
# In short: as §1
# [19] = target: Gal(b1-3)GlcNAc(b1-3)Gal(b1-4)[Fuc(a1-3)]GlcNAc
# In short: as §1
# [20] = target: Gal(b1-3)GlcNAc(b1-3)Gal(b1-4)[Fuc(a1-3)]GlcNAc(b1-6)[Gal(b1-3)GlcNAc(b1-3)]Gal(b1-4)Glc
# In short: as §1
# [21] = target: Gal(b1-3)GlcNAc(b1-3)GalNAc
# In short: as §1
# [22] = target: Gal(b1-3)GlcNAc(b1-6)Gal(b1-4)GlcNAc
# In short: as §1
# [23] = target: Gal(b1-3)GlcNAc(b1-6)GalNAc
# In short: as §1
# [24] = target: Gal(b1-3)GlcNAc(b1-6)[Gal(b1-3)]GalNAc
# In short: as §1
# Gal(b1-3)GlcNAc6S = target: Gal(b1-3)GlcNAc6S
# In short: as §1
# [25] = target: Gal(b1-3)[Fuc(a1-4)]GlcNAc
# In short: as §1
# [26] = target: Gal(b1-3)[Fuc(a1-4)]GlcNAc(b1-2)Man
# In short: as §1
# [27] = target: Gal(b1-3)[Fuc(a1-4)]GlcNAc(b1-2)Man(a1-3)[Gal(b1-3)[Fuc(a1-4)]GlcNAc(b1-2)Man(a1-6)]Man(b1-4)GlcNAc(b1-4)[Fuc(a1-6)]GlcNAc
# In short: as §1
# [28] = target: Gal(b1-3)[Fuc(a1-4)]GlcNAc(b1-3)Gal(b1-3)[Fuc(a1-4)]GlcNAc
# In short: as §1
# [29] = target: Gal(b1-3)[Fuc(a1-4)]GlcNAc(b1-3)Gal(b1-4)[Fuc(a1-3)]GlcNAc
# In short: as §1
# [30] = target: Gal(b1-3)[Fuc(a1-4)]GlcNAc(b1-6)GalNAc
# In short: as §1
# [31] = target: Gal(b1-3)[GlcNAc(b1-6)]GalNAc
# In short: as §1
# [32] = target: Gal(b1-3)[Neu5Ac(a2-6)]GalNAc
# In short: as §1
# [33] = target: Gal(b1-3)[Neu5Ac(a2-6)]GlcNAc(b1-4)Gal(b1-4)Glc
# In short: as §1
# [34] = target: Gal(b1-3)[Neu5Ac(b2-6)]GalNAc
# In short: as §1
# Gal(b1-4)Gal = target: Gal(b1-4)Gal
# In short: as §1
# [35] = target: Gal(b1-4)GalNAc(a1-3)[Fuc(a1-2)]Gal(b1-4)GlcNAc
# In short: as §1
# [36] = target: Gal(b1-4)GalNAc(b1-3)[Fuc(a1-2)]Gal(b1-4)GlcNAc
# In short: as §1
binder,measurement,setting,value
B1,glycan array binding signal (z-score),Gal(b1-2)Gal,-0.332
same,glycan array binding signal (z-score),Gal(b1-3)Gal,-0.653
same,glycan array binding signal (z-score),Gal(b1-3)Gal(b1-4)GlcNAc,1.7
same,glycan array binding signal (z-score),Gal(b1-3)GalNAc,-0.398
same,glycan array binding signal (z-score),[1],-0.076
same,glycan array binding signal (z-score),[2],0.378
same,glycan array binding signal (z-score),Gal(b1-3)GalNAc(b1-3)Gal,-0.056
same,glycan array binding signal (z-score),[3],-0.55
same,glycan array binding signal (z-score),[4],-0.166
same,glycan array binding signal (z-score),[5],0.245
same,glycan array binding signal (z-score),Gal(b1-3)GlcNAc,-0.597
same,glycan array binding signal (z-score),[6],-0.203
same,glycan array binding signal (z-score),[7],1.31
same,glycan array binding signal (z-score),Gal(b1-3)GlcNAc(b1-2)Man,-0.2
same,glycan array binding signal (z-score),[8],1.14
same,glycan array binding signal (z-score),[9],-0.624
same,glycan array binding signal (z-score),[10],-0.229
same,glycan array binding signal (z-score),[11],-0.228
same,glycan array binding signal (z-score),[12],0
same,glycan array binding signal (z-score),[13],-0.704
same,glycan array binding signal (z-score),[14],0.185
same,glycan array binding signal (z-score),[15],2.3
same,glycan array binding signal (z-score),[16],0.446
same,glycan array binding signal (z-score),[17],2.57
same,glycan array binding signal (z-score),[18],-0.603
same,glycan array binding signal (z-score),[19],-0.641
same,glycan array binding signal (z-score),[20],-0.615
same,glycan array binding signal (z-score),[21],-0.587
same,glycan array binding signal (z-score),[22],-0.517
same,glycan array binding signal (z-score),[23],-0.468
same,glycan array binding signal (z-score),[24],-0.733
same,glycan array binding signal (z-score),Gal(b1-3)GlcNAc6S,-0.565
same,glycan array binding signal (z-score),[25],-0.504
same,glycan array binding signal (z-score),[26],-0.005
same,glycan array binding signal (z-score),[27],-0.583
same,glycan array binding signal (z-score),[28],-0.17
same,glycan array binding signal (z-score),[29],-0.461
same,glycan array binding signal (z-score),[30],-0.288
same,glycan array binding signal (z-score),[31],-0.513
same,glycan array binding signal (z-score),[32],-0.477
same,glycan array binding signal (z-score),[33],-0.325
same,glycan array binding signal (z-score),[34],-0.556
same,glycan array binding signal (z-score),Gal(b1-4)Gal,-0.552
same,glycan array binding signal (z-score),[35],-0.61
same,glycan array binding signal (z-score),[36],-0.72
